# Data reported in PubChem BioAssay AID686971 (National Center for Advancing Translational Sciences (NCATS), 2013).
# About 7,500 (2.1%) of roughly 360,000 compounds were called active. This list was built around the results that the source calls inconclusive (neither active nor inactive); the mix of calls is not that of the screen. Calls come from the whole dose curve; as a rule, active = well fitted cell-killing curve with a large enough effect; inconclusive = small, poorly fitted or top-dose-only effect, or effect the other way, or another doubt; inactive = no such curve, though single readings can be large or run the other way. No potency is given beside an inconclusive call; the fits are too rough.
# Test: qHTS for induction of synthetic lethality in tumor cells producing 2HG: qHTS for the HT-1080-IDH1KD cell line;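 for activity, negative = toxicity: 0% = DMSO wells and -100% = cell-free medium wells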
# Conditions: HT-1080 IDH1 knockdown viability, ATP luminescence, 48 h; activity, negative = toxicity: at 46.1 µM (top of the series) unless noted
# Method in brief: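 Cytotoxicity counter-line: IDH1KD HT-1080, 48 h, CellTiter-Glo. Curves classed by r2, magnitude and activity.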
# Potency is the fitted concentration of half-maximal effect; tags give direction and shape of the fitted curve.
Compound,Potency,"activity, negative = toxicity"
Cc1ccc(-c2nn(-c3ccccc3)cc2CNCc2ccccc2)cc1,active: 23.1 µM,
Cc1[nH]c(C)c(S(=O)(=O)NCc2ccc(F)cc2)c1C(=O)N1CCCC1,inactive,
COc1ccc(Cl)cc1NC(=O)CN(C)C(=O)c1sc2ccccc2c1Cl,"inconclusive [cytotoxic, single point]",
CC(=O)Nc1nc(=S)ss1,inactive,
CC1(C)Cc2c(sc(NC(=O)c3ccco3)c2C#N)C(C)(C)N1,inactive,
Cc1c(NC(=O)c2cccc(NC(=O)Cc3ccc(F)cc3)c2)c(=O)n(-c2ccccc2)n1C,inactive,
O=C(c1ccc2c(c1)OCCO2)C1CCN(S(=O)(=O)c2cccc(F)c2)CC1,"inconclusive [cytotoxic, single point]",
CCCCn1c(SCC(N)=O)nc2sc3c(c2c1=O)CCC3,inactive,
CC1Oc2ccccc2C=C1/C=N/Nc1ccc(C(=O)O)cc1 (stereo not given),"inconclusive [cytotoxic, single point]",
CC(=O)Nc1cc(-c2ccc(F)cc2)cn2c(-c3ccc(F)c(Cl)c3)cnc12,"inconclusive [cytotoxic, single point]",
NC(=O)c1cc(C(=O)c2cccc(Cl)c2Cl)c[nH]1,inactive,
COc1cccc(NS(=O)(=O)c2ccc3[nH]cc(C(=O)NC4CC4)c(=O)c3c2)c1,"inconclusive [cytotoxic, partial curve, poor fit]",
CC(=O)C1=CCC(c2ccc(Cl)cc2)N(S(=O)(=O)c2ccccc2C)C1 (stereo not given),active: 16.4 µM,
COc1ccc(Cl)cc1-c1cc(C(=O)Nc2ccccc2)[nH]n1,"inconclusive [cytotoxic, single point]",
COc1ccc([N+](=O)[O-])cc1N(CC(O)CN(CC(C)C)CC(C)C)S(=O)(=O)c1ccccc1 (stereo not given),"inconclusive [cytotoxic, single point]",
CCCN1CCC(=O)N(CCSc2ccc(OC)cc2)CC1,active: 23.1 µM,
CC(C)Cc1nnc(NS(=O)(=O)Cc2ccccc2)s1,"inconclusive [cytotoxic, single point]",
CC(=O)Nc1cnc(-c2ccccc2C(C)=O)cn1,"inconclusive [rising, partial curve]",
O=C(CN1CCN(Cc2ccc(Cl)cc2)C1=O)NCCCN1CCN(c2ccc(F)cc2)CC1,active: 15.8 µM,
O=C(N/N=C/c1cccc(Oc2ccc([N+](=O)[O-])cc2[N+](=O)[O-])c1)c1cncc(Br)c1,active: 11.2 µM,
CCOC(=O)c1cn(-c2nc(-c3ccc(Cl)c(Cl)c3)cs2)c2c(F)c(N3CCOCC3)c(F)cc2c1=O,"inconclusive [rising, single point]",
O=C(N/N=C/C=C/c1ccccc1)C1CC1(c1ccccc1)c1ccccc1 (stereo not given),"inconclusive [cytotoxic, partial curve]",
Cc1ccc(-n2cc(CN3CCN(Cc4nccn4C)CC3)c(-c3cccc(C)c3)n2)cc1,"inconclusive [cytotoxic, single point]",
Cc1ccc(NC(=O)c2c(O)c3ccccc3n(C)c2=O)nc1,inactive,

Compound,Potency,"activity, negative = toxicity"
CCOC(=O)N1CCN(C(=O)c2ccc(CS(=O)c3cccc(C)c3)o2)CC1 (stereo not given),inactive,
Cc1ccc(-c2nn(CCC(=O)O)cc2/C=C\C(=O)c2ccc(Br)cc2)cc1,"inconclusive [cytotoxic, single point]",
O=C(/C(N=Nc1cccc(C(F)(F)F)c1)=C(/O)c1cccs1)C(F)(F)F,active: 20.6 µM,
CSc1ccccc1OCc1cc(C(=O)NCc2cccc(C)n2)no1,inactive,
O=C(Nc1ccc2c(c1)C(=O)N(CC1CCCO1)C2=O)c1cccc(Br)c1 (stereo not given),"inconclusive [cytotoxic, full curve]",
Cc1cc(OCC(=O)OCC(=O)N(C)Cc2ccccc2C)ccc1Cl,inactive,
COc1ccc(/C=N/NC(=O)C2(C)NC(C)(C)Cc3ccccc32)cc1 (stereo not given),,inconclusive: 30.7%
COc1cccc(/C=N/Nc2ccc([N+](=O)[O-])cc2)c1O,"inconclusive [cytotoxic, partial curve, poor fit]",
O=C(N/N=C/c1ccc(-c2cccc([N+](=O)[O-])c2)o1)c1cccs1,inactive,
C(=N\Nc1ncnc2sc3c(c12)CCC3)/c1ccncc1,"inconclusive [cytotoxic, partial curve]",
C[C@@H]1CN([C@@H](C)CO)C(=O)CCCn2nncc2CO[C@H]1CN(C)C(=O)c1ccccc1,inactive,
Cc1ccc(C)c(N2CCN(C(=O)c3ccc4nc(-c5ccco5)c(-c5ccco5)nc4c3)CC2)c1,"inconclusive [cytotoxic, single point]",
CN(C)CCc1cc2c(c3c1ccc1ccccc13)OCO2,"inconclusive [cytotoxic, single point]",
C=CC[C@@H](CC(=O)N[C@H](CO)Cc1ccccc1)C(=O)N[C@H](COC(=O)[C@@H](CC=C)Cc1ccc(F)cc1)Cc1c[nH]c2ccccc12,"inconclusive [cytotoxic, single point]",
COc1cc(OC)cc(C(=O)NCCSC2CCCCC2)c1,inactive,
Cn1c(=O)c2[nH]c(N3CCCCC3)nc2n(C)c1=O,inactive,
CN(C)c1ccc(CNc2ccc3c(c2)ncn3C(C)(C)C)cc1,"inconclusive [cytotoxic, single point]",
Cc1ccc(Cn2nnnc2CN2CCC(c3nc4ccc(Cl)cc4[nH]3)CC2)cc1,,inconclusive: -35.9% [cytotoxic]
CCN(CC(=O)Nc1c(F)cccc1F)C(=O)CCOc1ccc(C)cc1,,inconclusive: -7.59% [cytotoxic]
Cc1cc(Br)ccc1OCCCCNC(C)(C)C,"inconclusive [cytotoxic, single point]",
O=C1C2C3C=CC(C3)C2C(=O)N1/N=C/c1cc(Br)cc([N+](=O)[O-])c1O (stereo not given),"inconclusive [cytotoxic, single point]",
CC(C)(C)c1ccc(CN(Cc2ccccc2)C(c2ccccn2)c2nnnn2C(C)(C)C)cc1 (stereo not given),"inconclusive [cytotoxic, single point]",
N/C(Cc1ccc([N+](=O)[O-])cc1)=N\OC(=O)c1ccc2ccccc2c1,"inconclusive [cytotoxic, single point]",
COc1ccc(N2CCN(C(=O)COC(=O)COc3ccc(C#N)cc3)CC2)cc1,inactive,

Compound,Potency,"activity, negative = toxicity"
Cc1ccccc1C(=O)Nc1c(C(=O)N(CCN(C)C)Cc2ccco2)oc2ccccc12,"inconclusive [cytotoxic, single point]",
O=S(=O)(Nc1cc(Sc2ncn[nH]2)c(O)c2ccccc12)c1ccccc1,active: 4.61 µM,
O=C(NCCN1CCN(c2ccccc2)CC1)c1cccc(Br)c1,"inconclusive [cytotoxic, single point]",
CCc1ccc2c(c1)cc(CN(C(=S)Nc1cccc(C)c1)C1CC1)c1nnnn12,inactive,
COc1ccc(NC(=S)NC(NC(=O)c2cccc(C)c2)C(Cl)(Cl)Cl)c([N+](=O)[O-])c1 (stereo not given),"inconclusive [cytotoxic, single point]",
O=C(NCc1ccccc1)C(c1ccncc1)n1c(=O)c(-c2cc3ccccc3[nH]2)nc2ccccc21 (stereo not given),"inconclusive [cytotoxic, single point]",
CCOC(=O)CNC(=O)C1(/C=C/c2ccccc2)CC(=O)N1c1ccc(C)cc1 (stereo not given),inactive,
CCc1nnc(NC(=O)c2sc3nc4c(cc3c2N)CCCCCC4)s1,"inconclusive [cytotoxic, partial curve]",
CC(=O)Nc1ccc2c(c1)Cc1c-2cc(Cl)c(NC(C)=O)c1Cl,inactive,
Nn1c(SCc2cccc(Br)c2)nnc1-c1ccncc1,"inconclusive [cytotoxic, partial curve]",
COc1ccc(C(NC(=O)C(C)C)c2c(O)ccc3ccccc23)cc1 (stereo not given),"inconclusive [cytotoxic, single point]",
Cc1ccc(C(C[N+](=O)[O-])c2c(-c3ccccc3O)[nH][nH]c2=O)cc1 (stereo not given),active: 9.2 µM,
Cc1ccc(NC(=O)C(C)SCc2ccccc2)cc1 (stereo not given),inactive,
CCOC(=O)C(c1nc2ccccc2[nH]1)n1c(-c2ccccn2)nc2ccccc21 (stereo not given),inactive,
O=C(NC1CCCCC1)C(c1cccs1)N(CCCN1CCOCC1)C(=O)c1ccc(-c2ccccc2)[nH]1 (stereo not given),"inconclusive [cytotoxic, single point]",
CC(C)(C)[C@H]1CCC(=O)N([C@H](CSc2ccc(Br)cc2)Cc2ccccc2)CC1,inactive,
CCOc1ccc(CCn2c(-c3ccco3)nc3ccccc3c2=O)cc1OCC,active: 3.55 µM,
CC(=O)C1CCC2C3CCC4=CC(=O)C=CC4(C)C3C(=O)CC12C (stereo not given),inactive,
CCCNC(=O)C(=O)Nc1ccc2c(c1)N(S(=O)(=O)c1cccs1)CCC2,"inconclusive [cytotoxic, single point]",
CC(=O)c1ccc(-c2cc([C@H]3[C@H]4C=CC[C@@H](C)[C@@H]4C(=O)N3Cc3ccccc3)ccc2F)cc1,"inconclusive [cytotoxic, single point]",
Cc1ccc2nc(C3CCN(S(=O)(=O)c4ccc5ccccc5c4)CC3)[nH]c2c1,"inconclusive [cytotoxic, single point]",
O=c1[nH]nc(SCCS(=O)(=O)c2ccc(F)cc2)n1-c1ccccc1,"inconclusive [cytotoxic, single point]",
